Reference: the RNAGym collection of RNA variant scans (doi:10.1073/pnas.2313332121)
Variants at the floor of the assay are shown more often than the library holds them.

B1: TPR 5TU (parent)
chain: GGAUCUUCUCGAUCUAACAAAAAAGACAAAUCUGCCACAAAGCUUGAGAGCAUCUUCGGAUGCAGAGGCGGCAGCCUUCGGUGGCGCGAUAGCGCCAACGUUCUCAACUAUGACACGCAAAACGCGUGCUCCGUUGAAUGGAGUUUAUCAUG

Variants of: B1
Assay: polymerase ribozyme fitness, log enrichment relative to wild type (log ratio); higher = more active; in vitro selection for triplet polymerase activity
Summary of the method: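 Each subunit of a heterodimeric triplet polymerase ribozyme was represented by a PCR-built, transcribed mutant library that underwent triplicate single-round in vitro selection with frozen incubation at −7 °C. Extended constructs were recovered by gel excision, streptavidin-bead capture and RT-PCR, and Illumina sequencing of input and output libraries kept genotypes with ≥10 input reads and ≥1 read per output. Fitness is the logarithm of genotype enrichment relative to wild-type enrichment, from inverse-variance-weighted replicate averages, with a logarithm base of 2.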

Polymerase ribozyme fitness (log ratio), ≤ -4.2:
GGAUCUUGUCGAUCUAACGAAAAAGACAAAUCUGCCACAAAGCUUGAGAGCAUCUUCGGAUGCAGAGGCGGCAGCCUUCGGUGGGGCGAUAGCGCCAAAGGUCUCAACUAUGAUACGCAAAACGCGUGCUCCGUUGAAUGGGUUUUCUCAUG
GGAUCUUGUCGAUCUAACAACAAAGACAAAUCUGCCACAAAGCUUGAGAGCAUUUUCGGAUGCAGAGGCGGCAGCCUUCGGUUGCGCGAUAGCGCCAACGUUCUCAACUAUGACACGCAAAACGCGUGCUCCGUUGAAUGGAGUUUAUCAUG
GGAUCUUGUCGAUCUAACAAUAAACACAAAUCUGCCACAAAGCUUGAGAGCCUCAUCGGAUGAAGAGGCGGCAGCCUUCGGUGACGCGAUAGCGCCAACGUUCUCAACUAUGACACGCAAAACGCGUGCUCCGUUGAAUGGAGUUUAUCAUG
GGAUCUUGUCGAUCUAACAAACAAGACAAAUCUGCCACAAACCUUGAGAGCAUGUUCGGAUGCAGAGGCGGCAGCCUUCGGUGGCGCGUUAGCGGCAACGUUCUCAACUAUGACACGCAAAACGCGUGCUCCGUUGAAUGGAGUUUAUCAUG
GGAUCUUGUCGAUCUAACAAAGAAGACAAAUCUGCCACAAAGCUUGAGAACAUCUACGGAUGCAGAGGCGGCAGCCUUCGGUGGCGCGAUUGCGCCAACGUUCUCAACUAUGACACGCAAAACGCGUGCUCCGUUGAAGGGAGUUUAACAUG
GGAUCUUGUCGAUCUAACAAAAUAGACAAAUCUGCCACAAAGCUUGAGAGCAUCUUCGGAUGCAGAGGCGGUAGCCUUCGGUGGCGCAAUAGCGCCAACCUUCUCAACUAUGACACGCAAAACGCGUGCUGAGUUGAAUGGAGUUUAUCAUG
GGAUCUUGUCGAUCUAACAAAAAAGCCAAAUCUGCCACAAAACUUGAGAGCAUCUUAGGAUGCAGAGGCGGCAGCCUUCGGUGGCGAGAUUGCGCCAACGUUCUCAACUAUGACAAGCAAAACGCGUGCUCCGUUGAAUGGAGUUUAAGAUG
GGAUCUUGUCGAUCUAACAAAAAAGUCAAAUCUGCCACAAAGCUUGAGAGCCUCUUCGGAUGCAGACGCGGCAGCCUUCGGUGGCGCGAUAGCGCCAAUGGUCUCAACUAUGACACGCUAAACGCGUGCUCCGUUGAAUGGAGUUUAUCAUG
GGAUCUUGUCGAUCUAACAAAAAAGACCAAUCUGCCACCAAGCUUGAGCGCAUCUUCGGAUGCAGAGGGGGCAGCCUUCGGUGGCGCGAUAGCGCCAACGUUCUCAACUAUGACACGCAAAACGCGUGCUCCGUUGAAUGGAGUUUAUCAUG
GGAUCUUGUCGAUCUAACAAAAAAGACCAAUCUGCCACAAAGCUUGAGAACAUCUUCGGAUGCAGAGGCGGCAGCCUUCGGUGGCGCGAUAGCGCCAACGUUCUCAACUAUGACACGCAAAACGCGUGCUCCGUUGAAUGGAGUUUAUCAUG
GGAUCUUGUCGAUCUAACAAAAAAGACGAAUCUGCCACAAAGCUUGAGAGCAUCUUCGGAUGCAGAGGCGGCAGCCUUCGGUGGCGGGAUAGCGCUAACGUUCUCAACUAUGACACGCAAAACGCGUGCCCCGUUGAAUGGAGUUUAUCAUG
GGAUCUUGUCGAUCUAACAAAAAAGACAUAUAUGCCACAAAGCUUGAGAGCAACUUCGGAUGCAGAGGCGGCAGCCUUCGGGGGCGCGAUAGCGCCAACGUUCUCAACUAUGACACGCAAAACGCGUGCUCCGUUGAAUGGAGUUUAUCAUG
GGAUCUUGUCGAUCUAACAAAAAAGACAAAUCUGCCACCAAGCUUGAGAGUAUCUACGGAUGCAGAGGCGGCAGCCUUCGGUGGCGCCAUAGCGCCAACGUUCUCAACUAUGACACGCAAAACGCGUGCUCCGUAGCAUGGAGUUUAUCAUG
GGAUCUUGUCGAUCUAACAAAAAAGACAAAUCUGCCACAGAGCUUGAGAGCAUCUUCGGAUGCAGAGGCGGCAGCCUUCGGUGGGGCGAUAGCGCCAACGUUCUCAACUAUUAUACGCAAAACGCGUGCUCCGUUGCAUGGAGUUUAUCAUG
GGAUCUUGUCGAUCUAACAAAAAAGACAAAUCUGCCACAAAGCUUGCGAGCAUCUUCGGAUGCAGAGGCGGCAGCCUUAGGUCGCGCGAUAGCGCCAACGUUCUCAACUAUGACACGCAAAACGCGUGCUCCGUUGAAUGGAGUUUAUCAUG
GGAUCUUGUCGAUCUAACAAAAAAGACAAAUCUGCCACAAAGCUUGGGAGCAUCUACGGAUACAGAGGCGGCAGCCUACGGUGGCGAGAUAGCGCCAAUGUUCUCAACUAUGACACGCAAAACGCGUGCUCCGCUGAAUGGAGUUGAGCAUG
GGAUCUUGUCGAUCUAACAAAAAAGACAAAUCUGCCACAAAGCUUGAGCGCAUCUUCGGAUGCAGAGGCGGCAACCUUCGGUGGAGCGAUAGCGCCAACGUUCUCAAAUAUGACACGCAAAACGCGUGCUCCGUUGAAUGGAGUUUAUCAUG
GGAUCUUGUCGAUCUAACAAAAAAGACAAAUCUGCCACAAAGCUUGAGAGCCUCUUCGGAUGCAGAGGCGGCUGCCUUCGGUAGCGCGAUAGCGCCAACGUUCUCAACUAUGACACGCAAAACGCGUGCUCCGUUGAAUGGAGUUUAUCAUG
GGAUCUUGUCGAUCUAACAAAAAAGACAAAUCUGCCACAAAGCUUGAGAGCGUCUUCGGAUGCAGAGGCGGCAGCCUUCGGUGGCGUGAUAGCGCCAACGUUCUCAACUAUGACACGCAAAACGCGUGCUCCGUUGAAUGGAGUUUAUCAUG
